Laboratory results reported in PubChem BioAssay AID360 (National Center for Advancing Translational Sciences (NCATS), 2006).
In all, about 48,000 compounds went through this assay and about 550 (1.1%) were called active. About 4% were inconclusive and are not listed. Cut-off read from the data, not from the text of the source: active = potency below about 15 µM; inconclusive = mostly about 16 µM to 33 µM; inactive = weaker than that. Some of the results follow.
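Note: the screen sought inhibitors.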
Potency is the fitted concentration of half-maximal effect.

These compounds were tested against Lysosomal acid glucosylceramidase (Homo sapiens) (UniProt P04062) (assay: Glucocerebrosidase). Details: purified enzyme, resorufin glucoside fluorescence (screen aimed at inhibitors), 20 min.
Sequence of UniProt P04062 (P04062 whole entry, looked up): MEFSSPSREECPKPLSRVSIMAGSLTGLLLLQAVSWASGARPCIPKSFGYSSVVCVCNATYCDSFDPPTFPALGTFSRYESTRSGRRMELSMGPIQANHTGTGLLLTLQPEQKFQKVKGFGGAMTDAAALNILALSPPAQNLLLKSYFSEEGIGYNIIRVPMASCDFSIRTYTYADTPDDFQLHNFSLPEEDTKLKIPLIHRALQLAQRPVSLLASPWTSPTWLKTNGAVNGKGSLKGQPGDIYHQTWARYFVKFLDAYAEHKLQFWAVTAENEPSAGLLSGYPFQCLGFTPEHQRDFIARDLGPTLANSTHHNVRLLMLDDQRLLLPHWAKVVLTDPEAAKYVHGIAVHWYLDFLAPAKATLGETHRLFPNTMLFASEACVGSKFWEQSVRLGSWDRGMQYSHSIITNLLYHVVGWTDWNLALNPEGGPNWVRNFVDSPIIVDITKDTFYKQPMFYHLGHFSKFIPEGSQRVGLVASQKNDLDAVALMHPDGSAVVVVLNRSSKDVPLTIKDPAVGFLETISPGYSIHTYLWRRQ
Outline: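 Wild-type enzyme at 0.2 nM final in 50mM citric acid/KH2PO4, 10mM sodium taurocholate, 0.01% tween-20, pH 5.9, with resorufin beta-D-glucopyranoside at 30 uM final. Compounds titrated, 20 min at RT, red fluorescence read; AC50 from titration.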
Cc1ccccc1-n1c(C)nnc1SCC(=O)NCC1CCCO1 (stereo not drawn) was tested, and the Potency was inactive: > 76.9 µM. For N#Cc1nc(-c2ccccc2Cl)oc1NCc1ccco1, the Potency was inactive: > 76.9 µM. With CCC1CCCCN1C(=O)CSc1nnc(-c2c[nH]c3ccccc23)o1 (stereo not drawn) the Potency was inactive: > 76.9 µM. With Cc1cc(C)n(-c2nc3ccccc3n3nnnc23)n1 the Potency was inactive: > 76.9 µM. For COc1ccc(-c2cc(C(=O)Nc3cnn(Cc4ccccc4C)c3)no2)cc1OC, the Potency was inactive: > 76.9 µM. For N#Cc1c(-c2ccco2)cc(-c2ccc(F)cc2)nc1N, the Potency was inactive: > 76.9 µM. In the case of COc1ccc(CC(=O)OCc2cc3ccc(C)cc3[nH]c2=O)cc1, the Potency is reported as inactive: > 76.9 µM. For OC1C[N+]2(CCCCC2)C1, the Potency was inactive: > 76.9 µM. In the case of O=C(NCCN1CCCCC1)c1c(O)c2ccccc2[nH]c1=O, the Potency is reported as “inactive”. For CCCNS(=O)(=O)c1ccc(CCC(=O)Nc2ccc3c(c2)OCO3)cc1, the Potency was inactive: > 76.9 µM. With CCOC(=O)c1[nH]c2ccc(OCC)cc2c1NC(=O)CN1CCC2(CC1)OCCO2 the Potency was inactive: > 76.9 µM. Cc1cnc(NC(=O)CSc2nnc(CNc3ccc(F)cc3)n2CC2CCCO2)s1 (stereo not drawn) was tested, and the Potency was inactive: > 76.9 µM. With C=CCc1cc(C)cc(C)c1OCCn1cncn1 the Potency was inactive: > 76.9 µM. For C=CCn1c(=N)n(CC(=O)OC)c2ccccc21, the Potency was inactive: > 76.9 µM. With Cc1cc2ccccc2n1CCNC(=O)C1CCCC1 the Potency was inactive: > 76.9 µM. For O=C(O)C1C2C=CC(C2)C1C(=O)Nc1cccc(F)c1 (stereo not drawn), the Potency was inactive: > 76.9 µM. In the case of Cc1c(NC(=O)C2CCCN2C(=O)c2cccs2)c(=O)n(-c2ccccc2)n1C (stereo not drawn), the Potency is reported as inactive: > 76.9 µM. For O=C(CCCn1nnc(-c2cccnc2)n1)c1ccc(F)cc1, the Potency was inactive: > 76.9 µM. With COc1c(C)cc(Br)cc1C(=O)Nc1ccc(N2CCN(S(C)(=O)=O)CC2)cc1 the Potency was inactive: > 76.9 µM. For Cc1nc(C)c(C(=O)C2=C(O)C(=O)N(CCCN(C)C)C2c2ccco2)s1 (stereo not drawn), the Potency was inactive: > 76.9 µM. With O=C(CC1OC(=O)c2ccccc21)Nc1ccccc1N1CCOCC1 (stereo not drawn) the Potency was inactive: > 76.9 µM. For Cc1cnc(NC(=O)CSc2nnc(Cc3ccccc3)n2C)s1, the Potency was inactive: > 76.9 µM. With CCOc1ccc(-n2c(=O)cc(N3CCN(c4ccccc4)CC3)[nH]c2=O)cc1 the Potency was inactive: > 76.9 µM. With CCOC(=O)CSc1nnc(-c2ccco2)n1-c1ccc(C)cc1 the Potency was inactive: > 76.9 µM. For O=S(=O)(c1cccs1)N1CCN(c2ccccn2)CC1, the Potency was inactive: > 76.9 µM. CC1CCCCN1C(=O)Cc1ccc(F)cc1 (stereo not drawn) was tested, and the Potency was inactive: > 76.9 µM. COc1ccc(NC(=O)Nc2cccs2)cc1OC was tested, and the Potency was inactive: > 76.9 µM. In the case of COc1cccc(Cn2c(Oc3cccc(C)c3)nc3c2c(=O)n(C)c(=O)n3C)c1, the Potency is reported as inactive: > 76.9 µM. For O=C(O)C12CC3CC(C1)CC(n1cnc(Cl)n1)(C3)C2, the Potency was inactive: > 76.9 µM. In the case of OC(c1cccc(OCc2ccccc2)c1)c1nnc(-c2ccccc2)o1 (stereo not drawn), the Potency is reported as inactive: > 76.9 µM. In the case of CCCS(=O)(=O)c1c(S(=O)(=O)CCC)c2cc(CC)ccn2c1C(=O)OC, the Potency is reported as inactive: > 76.9 µM. For CCOc1ccc(Cn2c(=O)oc3ccc(C)cc32)cc1OC, the Potency was inactive: > 76.9 µM. In the case of COc1cc2c(cc1OC)-c1cc(Nc3ccc4c(c3)OCCO4)nc(=O)n1CC2, the Potency is reported as inactive: > 76.9 µM. With CCOC(=O)C1CCN(CCC(=O)Nc2cccc(Cl)c2C)CC1 the Potency was inactive: > 76.9 µM. In the case of CCOC(=O)N1CCN(S(=O)(=O)c2ccc(OC)c(Cl)c2)CC1, the Potency is reported as inactive: > 76.9 µM. With COc1ccc2[nH]c(=O)c(CN(C(=O)NC3CCCCC3)C3CCCCC3)cc2c1 the Potency was “inactive”. NC(=O)CSc1nnc(-c2ccoc2)o1 was tested, and the Potency was inactive: > 76.9 µM. With CCOC(=O)CSc1nnc(CNC(=O)c2cccs2)n1-c1cc(OC)ccc1OC the Potency was inactive: > 76.9 µM. O=C1CN(C(=O)CCCc2c[nH]c3ccccc23)c2ccccc2N1 was tested, and the Potency was inactive: > 76.9 µM. In the case of CCSCc1nnc(SCC(=O)Nc2nc3ccccc3s2)n1C, the Potency is reported as inactive: > 76.9 µM. In the case of COC(=O)CCC(=O)COc1ccc(OC)cc1C#N, the Potency is reported as inactive: > 76.9 µM. For O=C(c1ccc(=O)[nH]c1)N(Cc1ccco1)C1(C(=O)NC2CCCC2)CCCCC1, the Potency was inactive: > 76.9 µM. CCC(Sc1nc(=O)cc(N)n1-c1ccccc1)C(=O)Nc1ccc(Cl)cn1 (stereo not drawn) was tested, and the Potency was inactive: > 76.9 µM. For CCOC(=O)c1ccccc1NC(=O)CSc1ncc(C(=O)OCC)c(N)n1, the Potency was inactive: > 76.9 µM. COc1ccc(OC)c(NC(=O)C2CCN(c3ncccn3)CC2)c1 was tested, and the Potency was inactive: > 76.9 µM. O=C(CCN1CCOCC1)Nc1cccc(Br)c1 was tested, and the Potency was “inactive”. In the case of c1ccc(-c2nc3ccccc3c3nncn23)cc1, the Potency is reported as inactive: > 76.9 µM. For CC(C)NCC(O)COc1c(F)cc(Br)cc1F (stereo not drawn), the Potency was inactive: > 76.9 µM. For O=C(NCc1ccccc1)c1cccc(OCC(=O)N2CCN(C(=O)c3ccco3)CC2)c1, the Potency was inactive: > 76.9 µM. For O=S(=O)(c1cnc[nH]1)N1CCCCCC1, the Potency was inactive: > 76.9 µM. In the case of COC(=O)CSc1nc2ccccc2n1CC(=O)N(C(C)C)C(C)C, the Potency is reported as inactive: > 76.9 µM. CCOC(=O)C1CCN(C(=O)c2cccc(NC(=O)C(CC)CC)c2)CC1 was tested, and the Potency was inactive: > 76.9 µM. CC(C(=O)N1CCN(c2ccccc2)CC1)N1C(=O)C2CC=CCC2C1=O (stereo not drawn) was tested, and the Potency was inactive: > 76.9 µM. For Cc1cccc(NC(=O)Cn2cnc3sc(C)c(S(=O)(=O)N4CCC(C)CC4)c3c2=O)n1, the Potency was inactive: > 76.9 µM. In the case of O=C(O)Cn1c(SCCOc2ccccc2)nc2ccccc21, the Potency is reported as inactive: > 76.9 µM. COc1ccc(CCNC(=O)CS(=O)Cc2nc(-c3cccs3)oc2C)cc1OC (stereo not drawn) was tested, and the Potency was inactive: > 76.9 µM. In the case of COc1cccc(-c2nnc(SCC(=O)Nc3ccc(S(N)(=O)=O)cc3)n2C)c1, the Potency is reported as inactive: > 76.9 µM. With COc1cccc(Cn2c(-c3cccs3)noc2=O)c1 the Potency was inactive: > 76.9 µM. For COc1ccccc1OCc1ccc(C(=O)OCC2CCCO2)o1 (stereo not drawn), the Potency was inactive: > 76.9 µM. In the case of CC(=O)N1C(=O)C(=C2C=C(C)OC(C)=C2)c2ccccc21, the Potency is reported as inactive: > 76.9 µM. In the case of Cc1ccc(-n2c(SCC(=O)OC(C)C)nnc2-c2ccccn2)cc1, the Potency is reported as inactive: > 76.9 µM. For Cc1nc2cc3nc(C)sc3cc2s1, the Potency was inactive: > 76.9 µM. In the case of COc1cc(NS(=O)(=O)c2ccc(F)cc2)c(C(=O)O)cc1OC, the Potency is reported as inactive: > 76.9 µM. With O=S(=O)(c1ccc(NC2CCCCC2)cc1)N1CCOCC1 the Potency was inactive: > 76.9 µM. In the case of CCOC(=O)c1c(-c2cccs2)csc1NC(=O)COC(=O)c1c(C)noc1C, the Potency is reported as inactive: > 76.9 µM. In the case of CCn1nnc(-c2ccccc2NC(=O)C(F)(F)F)n1, the Potency is reported as inactive: > 76.9 µM. With COc1ccccc1Nc1nc(N)nc(-c2cc3ccccc3o2)n1 the Potency was inactive: > 76.9 µM. For CC1CCCC(C)N1C(=O)COc1ccc(-c2nnco2)cc1 (stereo not drawn), the Potency was inactive: > 76.9 µM. Cc1nn2cc(-c3ccc(N)cc3)nc2s1 was tested, and the Potency was inactive: > 76.9 µM. For O=C(CSc1nnc(NC(=O)C2CCC2)s1)NC1CC1, the Potency was inactive: > 76.9 µM. For Cc1ccc2[nH]c(=O)c(CN(CCN3CCOCC3)C(=O)Nc3ccccc3F)cc2c1, the Potency was inactive: > 76.9 µM. For CC1=C(C(N)=O)C(c2ccccn2)n2nc(SCc3ccccc3)nc2N1 (stereo not drawn), the Potency was inactive: > 76.9 µM. In the case of CS(=O)(=O)N(CC(=O)N1CCCCC1)C1CCCCC1, the Potency is reported as inactive: > 76.9 µM. Cc1ccccc1NS(=O)(=O)c1ccc(NC(=O)c2ccco2)cc1 was tested, and the Potency was inactive: > 76.9 µM. Cc1cc(C)nc(N2CCCC(C(=O)Nc3nc4ccc(S(C)(=O)=O)cc4s3)C2)n1 (stereo not drawn) was tested, and the Potency was inactive: > 76.9 µM. COc1cc(C(=O)OCC(=O)N2CCCC2)cc(OC)c1OC was tested, and the Potency was inactive: > 76.9 µM. For COc1ccc(N2CCCn3c2nc2c3c(=O)n(Cc3ccccc3F)c(=O)n2C)cc1, the Potency was inactive: > 76.9 µM. In the case of NC(=O)c1ccc(-n2nnnc2SCc2ccccc2)cc1, the Potency is reported as inactive: > 76.9 µM. O=C(CSc1ncnc2c1oc1ccccc12)N1CCc2ccccc2C1 was tested, and the Potency was inactive: > 76.9 µM. With O=C(CN(C(=O)CNS(=O)(=O)c1ccccc1)c1ccc2c(c1)OCCO2)NC1CCCCC1 the Potency was active: 12 µM. With CCOC(=O)C1=C(CSc2n[nH]c(N)n2)NC(=O)NC1C (stereo not drawn) the Potency was inactive: > 76.9 µM. In the case of COc1ccc(CNc2nc3c(c(=O)[nH]c(=O)n3C)n2CCCc2ccccc2)cc1, the Potency is reported as inactive: > 76.9 µM. In the case of O=C(c1nnc(-c2ccncc2)o1)c1ccccc1Cl, the Potency is reported as inactive: > 76.9 µM. Nc1nonc1C(=O)OCC(=O)N1CCOCC1 was tested, and the Potency was inactive: > 76.9 µM. For CCOCCn1c(SCCCc2ccccc2)nc2c1c(=O)[nH]c(=O)n2C, the Potency was inactive: > 76.9 µM. CC1(C)OC(=O)C(=CNc2cccc(O)c2)C(=O)O1 was tested, and the Potency was inactive: > 76.9 µM. O=C(CN(Cc1ccco1)C(=O)Cn1nnc(-c2ccc(F)cc2)n1)NC1CCCC1 was tested, and the Potency was inactive: > 76.9 µM. With CC(C)N(Cc1cc2ccccc2[nH]c1=O)C(=O)C1CCCCC1 the Potency was inactive: > 76.9 µM. O=C(CSC1=NCCS1)NC1CCCCC1 was tested, and the Potency was inactive: > 76.9 µM. With CCOC(=O)C1=C(N)n2c(s/c(=C\c3cccnc3)c2=O)=C(C#N)C1c1cccnc1 (stereo not drawn) the Potency was inactive: > 76.9 µM. With CC1CC(C)CN(CCCNC(=O)CNC(=O)Cn2ccc3ccccc3c2=O)C1 (stereo not drawn) the Potency was inactive: > 76.9 µM. In the case of O=C(O)CN1CCNCC1, the Potency is reported as inactive: > 76.9 µM. With CCc1ccc(NC(=O)CSc2nnc(-c3ccccn3)n2C)cc1 the Potency was inactive: > 76.9 µM.
